Results taken from PubChem BioAssay AID1508642 (National Center for Advancing Translational Sciences (NCATS), 2021).
Hit rate of the full screen: of about 43,000 compounds, about 200 (0.47%) were called active. Roughly 12% stayed inconclusive and do not appear here. Calls follow the shape of the dose curve; as a rule, active = well fitted cell-killing curve with a large enough effect; inconclusive = small, poorly fitted or top-dose-only effect, or effect the other way; inactive = flat fitted curve, though single readings scatter. Some of the results follow.

Assay: Cell viability qHTS assay in S16 Pmp22-F2sN cells; also: nearly all actives have a fitted effect of over 65% in size
Details: S16 Pmp22-F2sN Schwann cells viability, CellTiter-Glo, 24 h; series mostly up to 57.5 µM; activity change, negative = cytotoxicity: at the top concentration
Summary of the method: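 Viability was measured by CellTiter-Glo luminescence (15 min, room temperature). This followed 24 h at 37 °C of compound exposure (23 nL pin transfer) in S16 Pmp22-F2sN Schwann cells, 500-1,000 per well.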
% is scaled to controls: 0 for no effect and ±100 for the full control effect.

| SMILES | activity change, negative = cytotoxicity |
| --- | --- |
| O=C(CC(c1cccs1)N1Cc2ccccc2C1=O)Nc1cccc(F)c1 (centres undefined) | inactive: 4.31% |
| Cc1ccc(OCC(=O)Nc2nc(-c3ccc(Br)cc3)ns2)cc1 | inactive: 8.27% |
| O=C(NCCc1ccc(F)cc1)C(=O)NCC(c1cccs1)S(=O)(=O)c1ccccc1 (centres undefined) | inactive: -5.89% |
| COc1ccc2c(Sc3ccccc3)c(C(=O)NCc3cc(Br)ccc3OC)[nH]c2c1 | inactive: 6.67% |
| COc1ccc(Cn2c(CCC(=O)Nc3ccccc3OC)nc3cccnc32)cc1 | inactive: 0.386% |
| CC(=O)Nc1ccc(NC(=O)C2Cc3ccccc3N2C(=O)c2ccccc2)cc1 (centres undefined) | inactive: -1.99% |
| COc1ccc2c(c1)c(=O)c(C(=O)c1ccc(Cl)cc1)cn2CC(=O)Nc1ccc2c(c1)OCCO2 | inactive: -11.2% |
| CC(C)OCCCn1c(=O)c2ccccc2n2c(-c3ccccc3F)nnc12 | inactive: -2.3% |
| Cc1oc2ccc(O)c(CN3CCCC(C)C3)c2c1C(=O)Nc1ccccc1 (centres undefined) | inactive: -3.48% |
| O=C(CSc1cn(CCNC(=O)c2c(F)cccc2F)c2ccccc12)Nc1ccccc1F | inactive: -6.05% |
| COc1cccc2[nH]c(C(=O)NCc3ccc4c(c3)CCN4C(=O)c3ccc(F)cc3)cc12 | inactive: -6.39% |
| CCc1c(C)nc2nc(-c3ccccc3)nn2c1NCc1ccc(C)cc1 | inactive: -16% |
| COc1ccc(CNC(=O)c2ccc(-c3nc(CS(=O)c4ccc(C)cc4)c(C)o3)cc2)cc1 (centres undefined) | inactive: -18.8% |
| COc1ccc(CNC(=O)CS(=O)(=O)c2cccc3nsnc23)cc1 | inactive: -5.33% |
| Cc1ccc(OC(=O)CSc2nnc(-c3cccs3)o2)c(C)c1 | inactive: 0.437% |
| CC1=C(C(=O)OC2CCCCCC2)C(c2ccc(Cl)cc2)CC(=O)N1 (centres undefined) | inactive: 30% |
| COc1ccc(Cl)cc1C(=O)NCc1nc(-c2cccc(C)c2)no1 | inactive: -15.2% |
| O=C(c1ccc([N+](=O)[O-])cc1)N1c2ncnn2C2(CCCCC2)[C@@H]2CCCC[C@@H]21 | inactive: -3.98% |
| COc1cccc(NC(=O)C2CCN(c3nnc(-n4c(C)ccc4C)s3)CC2)c1 | inactive: 18.1% |
| Cc1cc2c(cc1S(=O)(=O)Nc1cccc(Cl)c1C)OCCN2C | inactive: -8.82% |
| Cc1ccc(Cl)cc1N1CCN(C(=O)COCc2cc(-c3ccc4c(c3)OCO4)on2)CC1 | inactive: -2.84% |
| Cc1c(-c2nc(-c3ccc4c(c3)OCO4)no2)nnn1-c1cccc(C(F)(F)F)c1 | inactive: -1.89% |
| CC1=C(C(=O)Nc2cccc(C(F)(F)F)c2)C2(CCN(C(C)C)CC2)OC1=O | inactive: 25.9% |
| Cc1ccc(NC(=O)CCn2cnc3onc(-c4ccc(F)cc4)c3c2=O)c(Br)c1 | inactive: 21.6% |

| SMILES | activity change, negative = cytotoxicity |
| --- | --- |
| CC(C)Oc1ccc(CNS(=O)(=O)c2ccc(-c3cc(C(F)(F)F)on3)s2)cc1 | inactive: -0.774% |
| Cc1ccc2nc(CN3CCN(S(=O)(=O)c4ccc(F)cc4)CC3)oc2c1 | inactive: -13.4% |
| CCCNC(=O)CSc1cn(CC(=O)N2CCCCCC2)c2ccccc12 | inactive: 1.08% |
| O=C(CSc1nc2sc3c(c2c(=O)[nH]1)CCCC3)Nc1ccccc1F | inactive: -6.49% |
| CCOc1ccc(-c2nnc(SCC(=O)Nc3cccc(Cl)c3C)o2)cc1 | inactive: -1.51% |
| COc1ccc(CCNC(=O)CCn2c(=O)c3ccccc3n(Cc3ccccc3C)c2=O)cc1OC | inactive: -0.178% |
| COc1ccc(CCNc2nc3c(c(=O)n(C)c(=O)n3C)n2Cc2ccccc2Cl)cc1OC | inactive: -11% |
| O=C(Cn1cc(S(=O)(=O)Cc2ccccc2F)c2ccccc21)NCc1ccccc1 | inactive: -0.626% |
| Cc1ccc2c(=O)cc(C(=O)Nc3nc4ccc(Cl)cc4s3)oc2c1 | inactive: 15.1% |
| O=C(Nc1ccc(C(=O)OCc2cc(=O)n3c4c(sc3n2)CCCC4)cc1)c1cccc(F)c1 | inactive: 4.4% |
| Cc1cccc(C(=O)Nc2ccccc2OCc2cc(=O)n3c(C)csc3n2)c1 | inactive: 3.03% |
| COc1cc(OC)cc(N2C(=O)CSC23C(=O)Nc2ccccc23)c1 (centres undefined) | inactive: 9.06% |
| CCOc1ccc(Nc2c3c(nc4nncn24)CCC3)cc1 | inactive: -11.8% |
| O=C(CCc1ccccc1)N1CCc2c([nH]c3ccccc23)C1c1ccc(F)cc1 (centres undefined) | inactive: 1.61% |
| CCCCNC(=O)c1sc2ncccc2c1-n1cccc1 | inactive: 3.53% |
| O=C(CCCn1c(=O)c2ccccc2n(Cc2cccc(F)c2)c1=O)NCc1ccccc1Cl | inactive: 12.1% |
| COc1ccc(NC(=O)CN(c2ccc(C)cc2)S(=O)(=O)c2cccs2)cc1 | inactive: 0.854% |
| Cc1cccc(NS(=O)(=O)c2ccc3c(c2)CCCN3C(=O)C2CCC2)c1C | inactive: -28.7% |
| Cc1cc2oc(C(=O)Nc3c(C)n(C)n(-c4ccccc4)c3=O)cc(=O)c2cc1C | inactive: -5.61% |
| CN1C(=O)c2ccccc2Sc2ccc(NC(=O)c3ccc(C#N)cc3)cc21 | inactive: -22.4% |
| COC(=O)C(CCSC)NC(=O)c1cc2c(n(-c3ccccc3)c1=O)CC(C)(C)CC2=O (centres undefined) | inactive: 9.13% |
| CCOC(=O)Cn1c(=O)n(-c2ccc(Cl)cc2)c2nc(-c3ccc(Cl)cc3)nc(C(N)=O)c21 | inactive: -0.411% |
| CC(=O)N1CCCc2cc(S(=O)(=O)N3CCCC(C(=O)Nc4cccc(Cl)c4C)C3)ccc21 (centres undefined) | inactive: 3.44% |
| CCOC(=O)c1cnc2ccc(OCC)cc2c1Nc1cc(Cl)c(OC)cc1OC | inactive: -21.8% |

| SMILES | activity change, negative = cytotoxicity |
| --- | --- |
| Cc1nc(SCc2ccc(Cl)cc2)c(C#N)c(C)c1Cl | inactive: 9.68% |
| COc1ccc(OC)c(NC(=O)N2CCC(CN3CCCCC3)CC2)c1 | inactive: -2.53% |
| CCOc1cc(C(=O)Nc2ccc(S(=O)(=O)Nc3cc(OC)nc(OC)n3)cc2)cc(OCC)c1OCC | inactive: -4.15% |
| COC(=O)c1ccc(Cn2c(SCC(=O)N(C)c3ccccc3)nc3ccccc32)cc1 | inactive: 5.34% |
| Cc1ccc(C)c(OC(=O)CSc2nnc(-c3ccc4c(c3)OCO4)o2)c1 | inactive: 10.4% |
| CCCN(CCC)CCNC(=O)C1CCCN(S(=O)(=O)c2cccc3nsnc23)C1 (centres undefined) | inactive: 16.3% |
| CCOC(=O)c1cc(S(=O)(=O)N2CCN(c3ccc(F)cc3)CC2)[nH]n1 | inactive: 1.36% |
| CCCCCOC(=O)c1ccc(OC(=O)c2sc3ncn(Cc4cccc(F)c4)c(=O)c3c2C)cc1 | inactive: 4.81% |
| Cc1ccc(C)c(N2CCN(CCCNC(=O)c3nnc(Cc4ccc(F)cc4Cl)o3)CC2)c1 | inactive: -14.6% |
| O=C(NCc1ccccc1Cl)c1ccc(NC(=O)N2CCSc3ncccc32)cc1 | inactive: 4.91% |
| Cc1ccc(NC(=O)c2oc3ccc(S(=O)(=O)N4CCC5(CC4)OCCO5)cc3c2C)c(C)c1 | inactive: -17.1% |
| COCCn1c(SCC(=O)Nc2ccc(C(F)(F)F)cc2)nc2c([nH]c3ccccc32)c1=O | inactive: -3.11% |
| O=C(NCc1ccc2c(c1)CCN2C(=O)c1ccccc1)c1ccco1 | inactive: -20.3% |
| O=C(Nc1ccc(S(=O)(=O)N(Cc2ccccc2)c2ccccc2)cc1)c1ccc([N+](=O)[O-])cc1 | inactive: -18.5% |
| Cc1ccc(NC(=O)C(=O)NCCc2csc3nc(-c4ccccc4C)nn23)cc1Cl | inactive: 4.04% |
| Cc1ccc(NC(=O)C2CCCN(S(=O)(=O)c3c(C)n[nH]c3C)C2)cc1C (centres undefined) | inactive: 1.5% |
| CSc1cccc(NC(=O)C2CCN(S(=O)(=O)c3ccc4[nH]c5c(c4c3)CCCCC5)CC2)c1 | inactive: -15.4% |
| COc1ccc(C)cc1NC(=O)Cn1c(=O)oc2cc(S(=O)(=O)NCc3ccccc3)ccc21 | inactive: 6.1% |
| COc1ccc2c(c1)CC(C(=O)NCCN1CCN(c3cccc(C)c3C)CC1)CO2 (centres undefined) | inactive: 4.23% |
| COc1ccc2c(c1)c1c(c(=O)n(Cc3ccccc3)c(=O)n1CC(=O)Nc1ccc(C)cc1C)n2C | inactive: 1.92% |
| CC(C)CCNC(=O)Nc1cc(C(=O)NCc2cccc(F)c2)ccc1N1CCCC1 | inactive: -23.8% |
| O=C(Nc1nnc(S(=O)(=O)N2CCCCCC2)s1)c1ccccc1Br | inactive: 13.7% |
| CC(=O)Nc1ccc(Nc2nnc(-c3ccc(C)c(S(N)(=O)=O)c3)c3ccccc23)cc1 | inactive: 6.09% |
| COCCCNC(=O)CN1C(=O)CSc2ccc(S(=O)(=O)N3CCOCC3)cc21 | inactive: 7.02% |

| SMILES | activity change, negative = cytotoxicity |
| --- | --- |
| CCCS(=O)(=O)N1CC(=O)N(c2ccc(Cl)cc2)C(C)(C(=O)NC2CCCC2)C1 (centres undefined) | inactive: 7.73% |
| Cc1c(Cl)cccc1NC(=O)CSc1nc(=O)n(Cc2cccnc2)c2c1CCC2 | inactive: 7.08% |
| CCOc1cccc(NC(=O)c2ccc(F)c(S(=O)(=O)N(CC)c3cccc(C)c3)c2)c1 | inactive: 9.68% |
| Cc1ccc(Cn2cc(S(=O)(=O)c3ccc(C)cc3)c(=O)c3cc(F)c(N4CCCC4)cc32)cc1 | inactive: -13.8% |
| CC(=O)N1CCc2c(sc3c2c(=O)n(CCc2ccccc2)c(=O)n3Cc2cccc(C)c2)C1 | inactive: 12.8% |
| O=c1c(=O)n(Cc2c(F)cccc2Cl)ccn1Cc1ccccc1 | inactive: -7.98% |
| CC(C)NC(=O)Cn1nc(N2CCN(c3ccccc3)CC2)ccc1=O | inactive: 1.71% |
| COc1ccc2oc(-c3ccc(C)c(NC(=O)CSc4ccc(Cl)cc4)c3)nc2c1 | inactive: -1.27% |
| CCOc1cc(C2C(C(=O)OC)=C(C)NC3=C2C(=O)c2ccccc23)c(Br)cc1O (centres undefined) | inactive: -15.2% |
| CC(=O)N1c2ccc(S(=O)(=O)N3CCN(c4cccc(Cl)c4)CC3)cc2CC1C (centres undefined) | inactive: 3.98% |
| CCN(CC)c1ccc(NC(=O)CN2C(=O)c3cccnc3Sc3ccccc32)c(C)c1 | inactive: -0.256% |
| COc1cccc(NC(=O)Cn2c(=O)n(CC(=O)NCCc3ccccc3)c(=O)c3sccc32)c1 | inactive: 3.34% |
| Cc1ccc(-c2c3c(=O)n(C)c(=O)n(C)c3cn2-c2cc(C)ccc2O)cc1 | inactive: -0.185% |
| COc1ccc(N2CCN(C3C(=O)c4ccccc4N3C(C)=O)CC2)cc1 (centres undefined) | inactive: -1.18% |
| CCc1nn2c(=O)cc(COc3ccc(/C=C(\C#N)C(=O)Nc4ccc(C)cc4)cc3)nc2s1 | inactive: 16.7% |
| Cc1cccc(N2CCN(Cc3nnc(-c4ccc5c(c4)OCO5)o3)CC2)c1C | inactive: 0.0878% |
| COc1ccc(NC(=O)Nc2ccccc2OCc2cc(=O)n3ccccc3n2)c(OC)c1 | inactive: 4.52% |
| O=C(CN1C(=O)C2CCCCN2c2ccc(C(=O)N3CCCC3)cc21)NCc1cccc(F)c1 (centres undefined) | inactive: 5.57% |
| O=C(Cn1c(=O)c2cccn2c2ccc(F)cc21)N1CCN(c2ccccc2)CC1 | inactive: -5.54% |
| CCc1ccc(NC(=O)Cn2c(=O)n(CC3CCCO3)c(=O)c3cc(OC)c(OC)cc32)cc1 (centres undefined) | inactive: 20% |
| Cc1ccc(-c2cc(C(F)(F)F)c(C#N)c(SCC(=O)O)n2)cc1 | inactive: -10.4% |
| O=C(NCc1ccccc1)c1ccc2c(c1)nc1n2CCCCC1 | inactive: 18.2% |
